# Measurements published in PMC6919601, “Identification of Plasmodium dipeptidyl aminopeptidase allosteric inhibitors by high throughput screening” (PLoS ONE, 2019).
# Values joined by “and” are separate entries in the source; they are usually repeats but may differ in a detail not shown here. Equal entries are not always repeated. The whole screen tested about 110,000 compounds, of which about 230 (0.21%) showed an effect of 50% or more. This is one part of the list.
# Target: DPAP1 (Plasmodium falciparum, UniProt Q8IIJ9)
# Sequence (Q8IIJ9 whole entry, looked up): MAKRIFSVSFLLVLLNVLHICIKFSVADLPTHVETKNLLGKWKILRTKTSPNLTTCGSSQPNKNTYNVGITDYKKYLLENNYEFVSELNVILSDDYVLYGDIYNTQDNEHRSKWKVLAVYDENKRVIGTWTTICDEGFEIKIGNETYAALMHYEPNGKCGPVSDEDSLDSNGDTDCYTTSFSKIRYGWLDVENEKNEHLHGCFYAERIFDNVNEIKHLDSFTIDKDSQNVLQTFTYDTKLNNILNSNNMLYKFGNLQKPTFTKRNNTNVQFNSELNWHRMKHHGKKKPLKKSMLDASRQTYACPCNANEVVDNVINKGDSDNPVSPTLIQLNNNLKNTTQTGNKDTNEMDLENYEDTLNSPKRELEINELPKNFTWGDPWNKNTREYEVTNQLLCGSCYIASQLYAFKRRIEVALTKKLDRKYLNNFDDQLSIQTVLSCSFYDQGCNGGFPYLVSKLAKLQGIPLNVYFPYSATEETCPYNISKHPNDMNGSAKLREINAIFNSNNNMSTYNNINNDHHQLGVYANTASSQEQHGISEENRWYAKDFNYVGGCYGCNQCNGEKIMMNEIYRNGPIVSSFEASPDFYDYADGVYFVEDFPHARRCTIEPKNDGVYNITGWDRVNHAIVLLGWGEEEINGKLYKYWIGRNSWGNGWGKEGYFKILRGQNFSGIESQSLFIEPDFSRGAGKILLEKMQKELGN
# Assay: primary screen, percent inhibition; read by cleavage of a fluorogenic dipeptide substrate; higher = more effect of the substance
# Parameters: species or system P. falciparum D10 trophozoite lysates; single well
# 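Note: 30 min substrate incubation versus DMSO and 10 µM JCP410 controls.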
row,Structure (SMILES),% Inhibition @ 10 uM
1,N#CC1=C(N)Oc2c(ccc3ccccc23)C1c1cccc(C(F)(F)F)c1 (centres unmarked),3.95%
2,Cc1n[nH]c(C)c1CCc1nc2c3ccccc3nc(SCC(N)=O)n2n1,4.65%
3,CC1N(O)C(C)(C)C(c2ccc(F)cc2)=[N+]1[O-] (centres unmarked),1.84%
4,CN(C)CCN(Cc1ccccc1)c1nccc(N(C)C)c1C#N,-6.29%
5,CCCC1CCc2c(sc(NC(=O)Cc3ccc(OC)c(OC)c3)c2C(N)=O)C1 (centres unmarked),-7.01%
6,Cc1ccc(CCNC(=O)CNC(=S)N(Cc2ccccc2)Cc2cccnc2)cc1,-5.8%
7,c1ccc2sc(NC3=NCN(CCN4CCOCC4)CN3)nc2c1,-4.62%
8,COc1cc2c(C(=O)NCc3ccc(F)cc3)cn(C)c(=O)c2cc1OC,-4.86%
9,NS(=O)(=O)c1ccc(NC(=O)c2ccc(Cl)cc2Cl)cc1,0.847%
10,Cc1ccc(S(=O)(=O)c2cc3c(=O)n4cccc(C)c4nc3n(CCOCCO)c2=N)cc1,5.12%
11,O=[N+]([O-])c1ccc(CN2CCN(Cc3ccccc3)CC2)s1,4.67%
12,Cc1nc2c(C(=O)NCCC(C)C)cnn2c(C)c1Cc1ccccc1Cl,-4.06%
13,Cc1c(C)c2cc3c(c(C)c2oc1=O)OCN(Cc1ccco1)C3,4.13%
14,Cc1[nH]c2ccc(F)cc2c1CCN(Cc1ccccn1)C(=S)NC(C)(C)C,1.23%
15,Cc1ccc(C)c(S(=O)(=O)Nc2ccc(C(=O)N3CC(C)OC(C)C3)cc2)c1 (centres unmarked),-4.63%
16,CCOc1cc(CN2CCC(Cc3ccccc3)CC2)ccc1O,-8.13%
17,Cc1ccc(S(=O)(=O)N(CC(=O)N2CCC(C)CC2)c2ccc(Cl)cc2)cc1,-1.92%
18,O=C(c1ccccc1)N1CCN(C(=O)c2ccc(Br)cc2)CC1,-0.48%
19,CCN1CCCC1CNC(=O)CCc1nnc2n(Cc3ccc(F)cc3)c(=O)c3ccccc3n12 (centres unmarked),-0.692%
20,CC1(N2CCOCC2)C(=O)c2ccccc2C1=O,-2.09%
21,C=CCc1ccccc1OCCOc1ccc(/C=C2/C(=N)N3OC(C)=CC3=NC2=O)cc1OC,6.73%
22,O=C1NC(=S)NC(=O)C1=Cc1ccc2c(c1)OCO2,-2.63%
23,CC(C)CCNC(=O)c1cc(O)nc2ccc(Br)cc12,3.24%
24,Cc1nn(-c2cccc(Cl)c2)c(O)c1/C=N/c1ccc(SC#N)cc1,-8.72%
25,O=C(CCCCC(=O)Nc1ccc(F)cc1)Nc1ccc(F)cc1,-0.366%

row,Structure (SMILES),% Inhibition @ 10 uM
1,CCc1[nH]nc2c1C(c1ccc(OC)cc1OC)C(C#N)=C(N)O2 (centres unmarked),0.121%
2,Cc1sc(NC(=O)CCC(=O)O)nc1-c1ccc(Cl)cc1,-1.55%
3,COc1cccc(CNCc2cccc(F)c2)c1OC,4%
4,COc1ccc(C(=N)NOC(=O)c2c(-c3ccccc3Cl)noc2C)cc1,18.5%
5,COC(=O)c1noc(-c2ccc(Cl)cc2)n1,0.032%
6,COc1cc(NC(=O)C23CC4CC(C2)CC(n2cnc(Cl)n2)(C4)C3)c(C(C)=O)cc1OC,14.4%
7,Cc1nc2cc(C(=O)c3ccccc3)ccc2nc1O,-5.44%
8,CCOC(=O)c1c(NC(=O)CN2CCCCC2)sc2c1CCC2,3.32%
9,N=C1/C(=C\c2ccc(Sc3cccc4ccccc34)o2)C(=O)N=C2SC=NN12,2.14%
10,CC(C)CCNc1nc2ccccc2n2cnnc12,-4.21%
11,CC1CCc2cc(F)ccc2N1C(=O)/C=C/c1ccc(Cl)c(Cl)c1 (centres unmarked),-4.03%
12,CNCC(O)CN1CCN(c2ccc([N+](=O)[O-])cc2)CC1 (centres unmarked),2.33%
13,CC1=C(C#N)C(c2ccc3c(c2)OCO3)C2=C(O)CC(c3ccccc3)CC2=N1 (centres unmarked),0.751%
14,COCCN1C(=O)c2ccccc2C(C(=O)NCCN2CCOCC2)C1c1cn(C)c2ccccc12 (centres unmarked),3.51%
15,O=C(c1nn2c(c1Cl)NC(c1cccs1)CC2C(F)(F)F)N1CCCC1 (centres unmarked),-1.06%
16,Cc1ccc(-c2c(C)n3c4c(=O)n(C)c(=O)n(C)c4nc3n2C(C)C)cc1,-1.85%
17,CCc1ccc2ncc(S(=O)(=O)c3ccc(OC)cc3)c(N(CC)CC)c2c1,-3%
18,CCOC(=O)c1c(NC(=O)Cc2ccc(OC)cc2)sc(C(=O)NC2CCCCC2)c1C,0.565%
19,CC1CN(Cc2ccc(F)cc2F)CC(C)O1 (centres unmarked),-0.833%
20,CCCC(=O)n1nc(-c2cccnc2)nc1NCc1ccc(F)cc1,-2.92%
21,Cc1nc2c(C(=O)N3CCCC(C)C3)cnn2c(C)c1Cc1ccc(Cl)cc1 (centres unmarked),-0.519%
22,O=C(CCNS(=O)(=O)c1cccs1)NC1CCN(Cc2ccccc2)CC1,4.79%
23,Cc1nc2c(C(=O)n3ccnc3)cnn2c(C)c1Cc1ccccc1Cl,-0.406%
24,CCc1cccc(CC)c1NC(=O)C1CCN(S(C)(=O)=O)CC1,-9.82%
25,CCCN(CCC)c1nc(N)nc(-c2cc(Cl)ccc2OC)n1,-2.29%

row,Structure (SMILES),% Inhibition @ 10 uM
1,CCOC(=O)c1ccc(-n2nnnc2C(C)(CN2C(=O)c3ccccc3C2=O)NC)cc1 (centres unmarked),7.99%
2,O=C(c1ccc(F)cc1)N1CCN(Cc2cccc3ccccc23)CC1,-1.19%
3,Cc1c(Br)c(C(=O)Nc2sc(C(C)C)cc2C(N)=O)nn1C,-1.36%
4,CCOc1ccc(N2C(=O)CC(Sc3nc(O)c(CC)c(O)n3)C2=O)cc1 (centres unmarked),-0.318%
5,Cc1oc(CSc2nnc(-c3ccccc3)n2C)cc1C(=O)O,-2.39%
6,CC1=NOC(=O)/C1=C\c1ccc2c(c1)OCO2,1.63%
7,CCOC(=O)c1cc2c(nc1C)c(C)cc1c(C)c(C)[nH]c12,1.76%
8,O=C1c2ccccc2C(=O)N1c1cccc(Cl)c1Cl,3.91%
9,Cc1ccnc(NC(=O)c2ccc(C(C)(C)C)cc2)n1,2.93%
10,c1ccc(Cc2nc3ccccc3o2)cc1,-0.0369%
11,CC1=C(C(=O)N2CCCCC2)C(c2ccc(Cl)cc2)C2=C(O)CCCC2=N1 (centres unmarked),-1.48%
12,Cc1onc(-c2ccccc2)c1C(=O)Nc1nc2c(s1)CCCC2,-1.49%
13,C=CCn1cnc2c1c(=O)[nH]c(=O)n2C,-1.72%
14,O=C(Nc1ccccn1)C(NS(=O)(=O)c1cccc2nsnc12)c1ccccc1 (centres unmarked),0.317%
15,O=C(Cn1cc2c(n1)CCCC2)N1CCN(Cc2ccccc2)CC1,0.137%
16,COc1ccc(S(=O)(=O)N2CCN(S(=O)(=O)c3ccccc3)CC2)cc1,-3.4%
17,Cc1cccn2cc(CNC(=O)Cc3ccc(Cl)cc3)nc12,0.00665%
18,CCC(C)C(NC(=O)c1ccc(Cl)cc1Cl)C(=O)O (centres unmarked),-7.14%
19,CC[C@H](C)C(NC(=O)C1CCNCC1)C(=O)NC(CCc1ccccc1)C(=O)CO (some centres unmarked),-5.64% and 3.66%
20,Cc1nn(-c2ccccc2)c2c1N(CCCC(=O)NCCC1=CCCCC1)C(=O)CS2,1.63%
21,CC(C)(C)c1ccc(OCc2nn3c(C(F)(F)F)nnc3s2)cc1,-1.07%
22,O=C(O)c1[nH]c2ccccc2c1/C=N/Cc1ccccc1Cl,-0.406%
23,Cc1ccc(C(=O)N/C(=C/c2ccco2)C(=O)NC2CCCCC2)cc1,-5.32%
24,O=C(CN1C(=O)C2C3CCC(C3)C2C1=O)Nc1cccc(C(=O)O)c1 (centres unmarked),3.29%
25,Cc1cc(C)c(NC(=O)/C=C2\NC(C)(C)Cc3ccccc32)c(C)c1,1.87%

row,Structure (SMILES),% Inhibition @ 10 uM
1,Cc1ccc(C2C(C(=O)c3ccc4c(c3)OCCO4)=C(O)C(=O)N2CC2CCCO2)cc1 (centres unmarked),-0.473%
2,c1ccc(N2CCN(c3ncnc4sc5c(c34)CCCC5)CC2)nc1,-3.63%
3,Fc1ccccc1N1CCN(C2CCSC2)CC1 (centres unmarked),-0.0908%
4,CC(C)OCCCNC(=O)C(NC(=O)c1ccc(C23CC4CC(CC(C4)C2)C3)cc1)C(C)C (centres unmarked),-0.972%
5,CC(=O)c1ccc(N2CCN(C(=O)c3cc(F)c(F)cc3C)CC2)c(F)c1,-0.0619%
6,Cc1cccc(-c2nc(O)c3c4c(sc3n2)CCCC4)c1,39.3%
7,CC(C)C[C@H](NC(=O)c1ccccc1NC(=O)OC(C)(C)C)C(=O)NCC#N,0.174%
8,CNc1nc2c(-c3ccc(Cl)cc3)nnn2c2ccccc12,-1.21%
9,N#CCNC(=O)[C@H](CC1CCCCC1)NC(=O)c1ccc(Br)s1,-3.49%
10,Cc1ccccc1OCC(=O)Nc1ncc(Cc2ccc(Br)cc2)s1,-1.26%
11,COc1ccccc1N1CCN(C(=O)c2ccccc2)CC1,3.48%
12,Cc1nc(O)c2c3c(sc2n1)CCCCC3,0.00773%
13,COc1cccc(CNC(=O)C(C)n2nc(C)n3c(cc4occc43)c2=O)c1 (centres unmarked),1.38%
14,Cc1ccsc1CN(Cc1ccco1)C(=O)COc1ccc(Cl)cc1,6.92%
15,CCOC(=O)c1ccc(OCC2c3cc(OC)c(OC)cc3CCN2C(=O)C2CCCO2)cc1 (centres unmarked),4.15%
16,COc1ccc(OCC(=O)NCCSc2ccccn2)cc1,-5.51%
17,CC(C)CCn1c(CCCNC(=O)c2ccco2)nc2ccccc21,-1.22%
18,Cc1cc(Oc2nc3ccccn3c(=O)c2/C=C(\C#N)C(=O)NCC2CCCO2)ccc1Cl (centres unmarked),2.16%
19,CCCOc1ccc(C2c3c(oc4cc(C)c(C)cc4c3=O)C(=O)N2CCCN(C)C)cc1 (centres unmarked),2.31%
20,CN(C)S(=O)(=O)c1ccc(C(=O)OCCCNC2=NS(=O)(=O)c3ccccc32)cc1,-1.82%
21,CCCCSc1ncnc2sc3c(c12)CCCC3,3.95%
22,O=C(/C=C\Nc1ccc2c(c1)OCO2)c1ccc(F)cc1,-0.864%
23,CC1CN(C2CCN(CCc3ccccc3)CC2)CC(C)O1 (centres unmarked),1.43%
